Our source for the self-cleavage values is the RNAGym collection of RNA variant scans (doi:10.1093/nar/gkz1192).

The source gives no read counts; variants with many changes may rest on few reads.

Sequences and labels used below:
B1: CPEB3 Ribozyme (parent)
chain: UAACAGGGGGCCACAGCAGAAGCGUUCACGUCGCAGCCCCUGUCAGAUUCUGGUGAAUCUGCGAAUUCUGCUGUAUAUCUC

The variants in this series derive from B1. Kind of series: self-cleavage, relative activity (ratio to wild type); higher = more cleavage; in vitro, sequencing. In short, it runs like this:
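Libraries of CPEB3 self-cleaving ribozyme mutants came from rounds of error-prone PCR and carried barcodes, which DNA sequencing matched to variants. In vitro transcription used T7 RNA polymerase at 37°C for 5 hours, with a further 15 min in DNase I before EDTA stopped the reaction; the ribozymes cleaved during both steps. The RNA was reverse transcribed with template switching and sequenced on Illumina. Relative activity is the cleaved/total read fraction of a variant divided by that of the unmutated ribozyme, averaged over three batches with at least 5 reads.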
Turning to UAGCAGGGGGCCACAGCAGAAGCGUUCAUGACGCAGCCCCUGUCAGACUCUGGUGAAUCUGCGAACUCUGCUGUAUAUCUC [A3G C29U U31A U48C U66C], the self-cleavage was found to be 0.29.
Under UAGCAGGGGGCCACAGCAGAAGCGUUCACGUCGCAGCCUCUGUCAGAUUCUGGUGAGUCUGCGAAUUCUGCUGUAUAUCUC [A3G C39U A57G] stands 0.5; under UAGCAAGGGGCCACAGCAGAAGCGUCCACGUCGCGGCCCCUGUCGGAUUCUGGUGAAUCUGCGGAUUCUGCUGUAUAUCUC [A3G G6A U26C A35G A45G A64G], 0.06; under UAGCAGAGGGCCACGGCAGAAGUGCUCGCGUCGCAGCCCCUGUCAGAUUCUGGUGAAUCCGCGAAUUCUGCUGUAUAUCUC [A3G G7A A15G C23U U25C A28G U60C], 0.27.
UAGCACGGGGCCACGGCAGAAGCGUUCACGUCGCAGCCCCAGUCAGAUUCUGGUGAAUCUGCGAAUUCUGCUGUUUAUCCC [A3G G6C A15G U41A A75U U80C]: the self-cleavage turned out to be 0.06.
For UAGCAGGGGGCCACAGCAGAAGCGUUCACGUCGCAGGCCCUGUCAGAUUCUGGUGAAUCUGCGAAUUAUGCUGUAUAUCCC [A3G C37G C68A U80C], the self-cleavage amounted to 0.1.
The same measure for UAGCAAGGGGCCACAGCAGAAGCGUUCACGUUGCAGCCCCUGUCAGAUUCUGGUGAAUCUGCGAAUUCUGCAGUAUAUCAC [A3G G6A C32U U72A U80A]: 0.1; for UAGCAGGGGGCCACAGCAGAAGCGUUCACGUUGCAGCCCCUGUCAGAUUCUGGUGAAUCUGCGAAUUCUGCUGUAUAUCAC [A3G C32U U80A]: 0.7; for UAGCAGGGGGCCACAGCAGAAGCGUUCACGUCGUAGCCCCUGUCAGAUUCUGGUAAAUCUGCGAAUUCUGCUGUAUAUCUC [A3G C34U G55A]: 0.28.
For the variant UAGCAUGGGGCCACAGCAGAAGCGUUCACGUCGCAGCCCCUGUCAGAUUAUGGUGAAUCUGCGAAUUCUGCUGUAUAUCUC [A3G G6U C50A], the self-cleavage turned out to be 0.34.
Under UAGCAGGGGGCCACAGCAGAAGCGUUCACGUCGCAGCACCUGUCAGAUUCUGGUGAGUCUGCGAAUUCUGCUGUAUACCCC [A3G C38A A57G U78C U80C] stands 0.26; under UAGCAGCGGGCCUCAGCAGAAGCGUUCACGUCGCAGACCCUGUCAGAUUCUGGUGAAUCUGCAAAUUCUGCUGUAUAUCUC [A3G G7C A13U C37A G63A], 0.35; under UAGCAGGGGGCCACAGCAGAAGCGUUCACGUCGUAGCCCCUGUCAGAUUCUGGUGAAUCUGCGAAUUCUGCUGUAUUUCUC [A3G C34U A77U], 0.39.
Under UAGCAGAGGGCCACAGCAGAAGCGUUCACGUCGCAGCCCCUGUCAGAUUCUGGAGAAUCUGCGAAUUCUGCUGUAUAUCUC [A3G G7A U54A] stands 0.6; under UAGCAGAGGGCCACAGCAGAAGCGCUCACGUCGCAGCCCCUGUCAGAUUCUGGUGAAUCUACGAAUUCUGCUGUAUAUCUC [A3G G7A U25C G61A], 0.05; under UAGCAAGGGGCCACAGCAGGAGCGUUCACGUCGCAGCCCCUGUCUGAUUCUGGUGAAUCUGCGAAUUCUACUGUAUAUCCC [A3G G6A A20G A45U G70A U80C], 0.07.
The same measure for UAGCAGAGGGCCACAGCAGAAGCGUCCACGUCGCAGCCCCAGUCAGAUUCUGGUGAAUCUGCGAAUUCUGCAGUAUAUCUC [A3G G7A U26C U41A U72A]: 0.41; for UAGCAGGGGGCCACAGCAGAAGCGUUCACGUCGAAGCCCCUGUCAGAUUCUGGUGAAUCAGCGAAUCCUGCUGUAUAUCUC [A3G C34A U60A U67C]: 0.16; for UAGCAUGGGGCCACAGCUGAGGCGUUCACGUCGCAGCCCCUGCCAGAUUCUGGUGAAUCUGCGAAUUCUGCUGUAUAUCUC [A3G G6U A18U A21G U43C]: 0.11.
In the case of UAGCAGAGGGCCACUGCAGAAGCGUCCACGUCGCAGCCCCUGUCAGAUUCAGGUGGAUCUGCGAAUACUGCUGUAUAUCUC [A3G G7A A15U U26C U51A A56G U67A], the self-cleavage is 0.06.
The same measure for UAGCAGGGGGCCACAGCAGAAGCGUUCACGUCGCAGCCCCUGUCAGAUUCUGGUGAAUCUGACAAUUCUGCAGUAUAUCUC [A3G C62A G63C U72A]: 0.
Under UAGCAGGGGGCCACAGCAGAAGCGUUCACGUCGCAGCCACUGUCAGAUUCUGGUGAGUCUGCGAAUUCUGCCGUAUAUCUC [A3G C39A A57G U72C] stands 0.18; under UAGCAGGGGGCCACAGCAGAAGCGUUCACGUGGCAGCCCCUGUCAGAUACUGGUGAGUAUGCGAAUUCUGCUGUAUAUCUC [A3G C32G U49A A57G C59A], 0.25.
Under UAGCAGAGGGCCACAGCAGAAGCGUUCACGUCGCAGCCCCUGUCAGACUCUGGUGAAUCUGCGGAUUCUGCUGUAUAUCUC [A3G G7A U48C A64G] stands 0.07.
For the variant UAGCAGAGGGCCUCAGCAGGAGCGUUCACGUCGCAGCCCCUGUCUGAUUCUGGUGAAUCUGCGAAUUCAGCUGUAUAUCUC [A3G G7A A13U A20G A45U U69A], the self-cleavage amounted to 0.08.
In the case of UAGCAGAGGGCCACAGCAGAAGCGUUCACGUCGCAGCCCCUGACGGAUUCUGGUGAAUCUGCGAAUCCUGCUGUAUAUCCC [A3G G7A U43A A45G U67C U80C], the self-cleavage came to 0.12.
The same measure for UAGCAUGGGGCCUCAGCAGAAGCGUUCACGUCGCAGCCCCUGUCAGAUUCUGGUGAAUCCGCGAAUUCUGCUGUAUAUCUC [A3G G6U A13U U60C]: 0.26; for UAGCAGGGGGCCACAGCAGAAGCGUUCACGUCGCAGCCCUUGUCAGAUUCAGGUGAAUCUGCGAAUUCUGCUGUACAUCUC [A3G C40U U51A U76C]: 0.81; for UAGCAUGGGGCCACAGCAGAAGCGUUCACGUCGCAGCCCCUGUCAGAUUCUGGUGAAUCUGCGAAUUCUGCUGUAUGUCUC [A3G G6U A77G]: 0.51.
The same measure for UAGCAGGGGGCCACAGCAGAAGCGUUCAUGACGCAGCCCCUGUCAGAUUCUGGUGAAUCUGCGAAUUCUGCUGUAUACCUC [A3G C29U U31A U78C]: 0.43.
Regarding UAGCAGGGGGCCACAGCAGAAGCGUUCACGUCGCAGUCCCUGUCAGAUUCUGGUGAAUCUGCGAAUCCUGCUGUAUAACUC [A3G C37U U67C U78A], the self-cleavage amounted to 0.56.
Under UAGCAAGGGGCCACAGCAGAAGCGUUCACGUCACAGACCCUGUCAGAUUCUGGUGAAUCUGCGAAUUCUGCCGUAUAUCUC [A3G G6A G33A C37A U72C] stands 0.04; under UAGCAGGGGGCCACAGCAGAAGCGUUCACGUCGGAGCCCCUGUCAGAUCCUGGUGAAUCCGCGAAUUCUGCUGUACAUCUC [A3G C34G U49C U60C U76C], 0.07; under UAGCAGGGGGCCACAGCAGAAGCGUUCACGUCGCAGCCACGGUCAGAUUCUGGUGAAUCCGCGAAUUCUGCUGUAUAUCUC [A3G C39A U41G U60C], 0.08.
